{"source": "a collection of fitness landscapes (doi:10.1016/j.celrep.2020.107928)", "parents": {"B1": {"name": "Caulobacter ParB omega fusion; a variant is named by its letters at X, in order, B8GW30 (parent)", "chain": "MESVVVGEPGMSEGRRGLGRGLSALLGEVDAAPAQAPGEQLGGSREAPIEILQRNPDQPRRTFREEDLEDLSNSIREKGVLQPILVRPSPDTAGEYQIVAGERAWRAAQRAGLKTVPIMVRELDDLAVLEIGIIENVQRADLNVLEEALSYKVLMEKFERTQENIAQTIGKSXSHVANXMRLLXLPDEVQSYLVSGELTAXHARAIAAAADPVALAKQIIEGGLSVRETEALARKAPNLSAGKSKGGRPPRVKDTDTQALESDLSSVLGLDVSIDHRGSTGTLTITYATLEQLDDLCNRLTRGI"}}, "note": "In all, about 81,000 sequences were measured (“one-hybrid fitness for binding NBS DNA”: median about -0.1, highest 2% from about 0.36 on). This is one part of the list.", "data": [{"variants_of": "B1", "assay": "one-hybrid fitness for binding NBS DNA (the Noc-binding site; scaled: cognate 1, non-cognate 0); higher = stronger binding", "conditions": "with NBS DNA site", "in_short": "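Fitness is the rescaled log change in variant-to-wild-type read ratio, measured by Illumina sequencing of plasmids before and after bacterial one-hybrid selection. The scale puts cognate at 1 and non-cognate at 0. Selection of Caulobacter ParB libraries, four specificity codons randomised, took place in E. coli USO with a HIS3 reporter, site 19 bp from the promoter, over 48 hours at 37°C on M9-minus-histidine with 0.1 mM IPTG and 5 mM 3-AT.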", "values": [{"variant": "PTDW", "one-hybrid fitness for binding NBS DNA": "≤ 0.2"}, {"variant": "SGTL", "one-hybrid fitness for binding NBS DNA": "≤ 0.2"}, {"variant": "EREI", "one-hybrid fitness for binding NBS DNA": "≤ 0.2"}, {"variant": "IYTM", "one-hybrid fitness for binding NBS DNA": "≤ 0.2"}, {"variant": "LSTI", "one-hybrid fitness for binding NBS DNA": "≤ 0.2"}, {"variant": "AMTK", "one-hybrid fitness for binding NBS DNA": "≤ 0.2"}, {"variant": "KRAG", "one-hybrid fitness for binding NBS DNA": "≤ 0.2"}, {"variant": "TMNK", "one-hybrid fitness for binding NBS DNA": "≤ 0.2"}, {"variant": "AHRT", "one-hybrid fitness for binding NBS DNA": "≤ 0.2"}, {"variant": "LNKF", "one-hybrid fitness for binding NBS DNA": "≤ 0.2"}, {"variant": "EDTC", "one-hybrid fitness for binding NBS DNA": "≤ 0.2"}, {"variant": "WNRV", "one-hybrid fitness for binding NBS DNA": "≤ 0.2"}, {"variant": "PKDD", "one-hybrid fitness for binding NBS DNA": "≤ 0.2"}, {"variant": "PVPY", "one-hybrid fitness for binding NBS DNA": "≤ 0.2"}, {"variant": "RIFA", "one-hybrid fitness for binding NBS DNA": "≤ 0.2"}, {"variant": "RTRN", "one-hybrid fitness for binding NBS DNA": 0.277}, {"variant": "TPST", "one-hybrid fitness for binding NBS DNA": "≤ 0.2"}, {"variant": "KGVR", "one-hybrid fitness for binding NBS DNA": "≤ 0.2"}, {"variant": "RHGT", "one-hybrid fitness for binding NBS DNA": 0.344}, {"variant": "QMHS", "one-hybrid fitness for binding NBS DNA": 0.451}, {"variant": "DLGC", "one-hybrid fitness for binding NBS DNA": "≤ 0.2"}, {"variant": "RKVP", "one-hybrid fitness for binding NBS DNA": "≤ 0.2"}, {"variant": "ATTY", "one-hybrid fitness for binding NBS DNA": "≤ 0.2"}, {"variant": "LAGD", "one-hybrid fitness for binding NBS DNA": "≤ 0.2"}, {"variant": "MEYC", "one-hybrid fitness for binding NBS DNA": "≤ 0.2"}, {"variant": "GNQF", "one-hybrid fitness for binding NBS DNA": "≤ 0.2"}, {"variant": "ELRN", "one-hybrid fitness for binding NBS DNA": "≤ 0.2"}, {"variant": "QNKT", "one-hybrid fitness for binding NBS DNA": 0.357}, {"variant": "RCPV", "one-hybrid fitness for binding NBS DNA": "≤ 0.2"}, {"variant": "VIMA", "one-hybrid fitness for binding NBS DNA": "≤ 0.2"}, {"variant": "TFDD", "one-hybrid fitness for binding NBS DNA": "≤ 0.2"}, {"variant": "ISYP", "one-hybrid fitness for binding NBS DNA": "≤ 0.2"}, {"variant": "QPQY", "one-hybrid fitness for binding NBS DNA": "≤ 0.2"}, {"variant": "AFLM", "one-hybrid fitness for binding NBS DNA": "≤ 0.2"}, {"variant": "KQRC", "one-hybrid fitness for binding NBS DNA": "≤ 0.2"}, {"variant": "TRSR", "one-hybrid fitness for binding NBS DNA": 0.345}, {"variant": "MVEY", "one-hybrid fitness for binding NBS DNA": "≤ 0.2"}, {"variant": "DVQY", "one-hybrid fitness for binding NBS DNA": "≤ 0.2"}, {"variant": "SESP", "one-hybrid fitness for binding NBS DNA": "≤ 0.2"}, {"variant": "INSM", "one-hybrid fitness for binding NBS DNA": "≤ 0.2"}, {"variant": "RNFD", "one-hybrid fitness for binding NBS DNA": "≤ 0.2"}, {"variant": "EWTE", "one-hybrid fitness for binding NBS DNA": "≤ 0.2"}, {"variant": "ALQP", "one-hybrid fitness for binding NBS DNA": "≤ 0.2"}, {"variant": "TNAS", "one-hybrid fitness for binding NBS DNA": "≤ 0.2"}, {"variant": "MFNK", "one-hybrid fitness for binding NBS DNA": "≤ 0.2"}, {"variant": "HTKK", "one-hybrid fitness for binding NBS DNA": "≤ 0.2"}, {"variant": "SSQQ", "one-hybrid fitness for binding NBS DNA": "≤ 0.2"}, {"variant": "VPKC", "one-hybrid fitness for binding NBS DNA": "≤ 0.2"}, {"variant": "TVEG", "one-hybrid fitness for binding NBS DNA": "≤ 0.2"}, {"variant": "CRMI", "one-hybrid fitness for binding NBS DNA": "≤ 0.2"}, {"variant": "DECC", "one-hybrid fitness for binding NBS DNA": "≤ 0.2"}, {"variant": "QRGP", "one-hybrid fitness for binding NBS DNA": 0.301}, {"variant": "DRNR", "one-hybrid fitness for binding NBS DNA": "≤ 0.2"}, {"variant": "SADR", "one-hybrid fitness for binding NBS DNA": "≤ 0.2"}, {"variant": "AYGH", "one-hybrid fitness for binding NBS DNA": "≤ 0.2"}, {"variant": "SRLF", "one-hybrid fitness for binding NBS DNA": "≤ 0.2"}, {"variant": "SARH", "one-hybrid fitness for binding NBS DNA": "≤ 0.2"}, {"variant": "QTHH", "one-hybrid fitness for binding NBS DNA": 0.44}, {"variant": "SANW", "one-hybrid fitness for binding NBS DNA": "≤ 0.2"}, {"variant": "WFLC", "one-hybrid fitness for binding NBS DNA": "≤ 0.2"}, {"variant": "TCSS", "one-hybrid fitness for binding NBS DNA": "≤ 0.2"}, {"variant": "IQKC", "one-hybrid fitness for binding NBS DNA": "≤ 0.2"}, {"variant": "RYTD", "one-hybrid fitness for binding NBS DNA": "≤ 0.2"}, {"variant": "VLAS", "one-hybrid fitness for binding NBS DNA": "≤ 0.2"}, {"variant": "RIIF", "one-hybrid fitness for binding NBS DNA": "≤ 0.2"}, {"variant": "GKRM", "one-hybrid fitness for binding NBS DNA": "≤ 0.2"}, {"variant": "ILVV", "one-hybrid fitness for binding NBS DNA": "≤ 0.2"}, {"variant": "KSWR", "one-hybrid fitness for binding NBS DNA": "≤ 0.2"}, {"variant": "MVAF", "one-hybrid fitness for binding NBS DNA": "≤ 0.2"}, {"variant": "ATRR", "one-hybrid fitness for binding NBS DNA": 0.278}, {"variant": "LMKP", "one-hybrid fitness for binding NBS DNA": "≤ 0.2"}, {"variant": "SAMC", "one-hybrid fitness for binding NBS DNA": "≤ 0.2"}, {"variant": "TVLC", "one-hybrid fitness for binding NBS DNA": "≤ 0.2"}, {"variant": "NRHG", "one-hybrid fitness for binding NBS DNA": "≤ 0.2"}, {"variant": "LVKP", "one-hybrid fitness for binding NBS DNA": "≤ 0.2"}, {"variant": "PTQS", "one-hybrid fitness for binding NBS DNA": "≤ 0.2"}, {"variant": "ELLF", "one-hybrid fitness for binding NBS DNA": "≤ 0.2"}, {"variant": "RLET", "one-hybrid fitness for binding NBS DNA": "≤ 0.2"}, {"variant": "ILQC", "one-hybrid fitness for binding NBS DNA": "≤ 0.2"}, {"variant": "KQTR", "one-hybrid fitness for binding NBS DNA": "≤ 0.2"}, {"variant": "TDEE", "one-hybrid fitness for binding NBS DNA": "≤ 0.2"}, {"variant": "LAIC", "one-hybrid fitness for binding NBS DNA": "≤ 0.2"}, {"variant": "LKMS", "one-hybrid fitness for binding NBS DNA": "≤ 0.2"}, {"variant": "HPGR", "one-hybrid fitness for binding NBS DNA": "≤ 0.2"}, {"variant": "DTRH", "one-hybrid fitness for binding NBS DNA": "≤ 0.2"}, {"variant": "MFMS", "one-hybrid fitness for binding NBS DNA": 0.249}, {"variant": "QHSR", "one-hybrid fitness for binding NBS DNA": 0.51}, {"variant": "EKLS", "one-hybrid fitness for binding NBS DNA": "≤ 0.2"}, {"variant": "MRCM", "one-hybrid fitness for binding NBS DNA": "≤ 0.2"}, {"variant": "DACR", "one-hybrid fitness for binding NBS DNA": "≤ 0.2"}, {"variant": "WVGS", "one-hybrid fitness for binding NBS DNA": "≤ 0.2"}, {"variant": "WRKV", "one-hybrid fitness for binding NBS DNA": "≤ 0.2"}, {"variant": "VRAS", "one-hybrid fitness for binding NBS DNA": "≤ 0.2"}, {"variant": "NQSC", "one-hybrid fitness for binding NBS DNA": "≤ 0.2"}, {"variant": "HRAY", "one-hybrid fitness for binding NBS DNA": "≤ 0.2"}, {"variant": "AMNA", "one-hybrid fitness for binding NBS DNA": "≤ 0.2"}, {"variant": "QHLF", "one-hybrid fitness for binding NBS DNA": "≤ 0.2"}, {"variant": "HIHN", "one-hybrid fitness for binding NBS DNA": "≤ 0.2"}]}]}
